Measurements as given in the supplement of paper PMC11880418.
Where a name gives a salt, the structure may show the parent alone. The list shows a part of the results. The data scatter; read single values as rough.

Tests used:
Experiment in all cases: ALDHbr (CSC) cell proportion score relative to DMSO vehicle (ratio to DMSO); breast (SUM159) / gastric (MKN45) / pancreatic (PANC1) / colon cancer lines; ALDHbr cells have high ALDH activity and are rich in cancer stem cells (CSC); higher = more CSC (ALDHbr) cells remaining
Conditions in all cases: 10 µM; 72 h
MKN45 = tested on: MKN45
PANC1 = tested on: PANC1
SUM159 = tested on: SUM159
T84 = tested on: T84
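Also: High-content imaging of ALDEFLUOR-stained cells with Hoechst-labelled nuclei in 384-well plates, triplicate wells, scored as Z-score against 0.1% DMSO vehicle, negative meaning fewer ALDHbr cells.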

| SMILES | ALDHbr (MKN45) | ALDHbr (PANC1) | ALDHbr (SUM159) | ALDHbr (T84) |
| --- | --- | --- | --- | --- |
| Nc1nc(=O)n([C@@H]2CS[C@H](CO)O2)cc1F [(-)-Emtricitabine] | 0.894 | 0.941 | 1.36 | 0.96 |
| C[C@@H](O[C@H]1OCCN(Cc2n[nH]c(=O)[nH]2)[C@H]1c1ccc(F)cc1)c1cc(C(F)(F)F)cc(C(F)(F)F)c1 [Aprepitant] | 0.698 | 1.92 | 1.28 | 0.654 |
| CN(C)CC/C=C1/c2ccccc2Sc2ccc(Cl)cc21 [Chlorprothixene hydrochloride] | 0.857 | 0.912 | 0.462 | 0.814 |
| COCCOC(=O)C1=C(C)NC(C)=C(C(=O)OC(C)C)C1c1cccc([N+](=O)[O-])c1 (stereo not given) [Nimodipine] | 0.666 | 0.705 | 0.701 | 0.921 |
| O=C(O)Cc1ccc(-c2ccccc2)cc1 [Felbinac] | 0.914 | 1.01 | 0.858 | 0.984 |
| N[C@@H](Cc1ccc(O)c(O)c1)C(=O)O [Levodopa] | 1.11 | 0.8 | 0.986 | 1.02 |
| CC=C(C)C(=O)OC1C(OC(C)=O)C2(CO)C(O)CC3(C)C(=CCC4C5(C)CCC(OC6OC(C(=O)O)C(OC7OC(CO)C(O)C(O)C7O)C(O)C6OC6OC(CO)C(O)C(O)C6O)C(C)(CO)C5CCC43C)C2CC1(C)C (stereo not drawn) [Beta-Escin] | 0.946 | 0.787 | 0.452 | 0.761 |
| CC(=O)N(CC(C)C(=O)O)c1c(I)cc(I)c(N)c1I (stereo not given) [Iocetamic acid] | 0.799 | 0.883 | 0.784 | 0.829 |
| CC(=O)OCC(=O)[C@@]1(O)CC[C@H]2[C@@H]3CCC4=CC(=O)CC[C@]4(C)[C@@]3(F)[C@@H](O)C[C@@]21C [Fludrocortisone acetate] | 1.1 | 0.443 | 1.4 | 0.96 |
| CN1CC2c3ccccc3Oc3ccc(Cl)cc3C2C1 (stereo not given) [Asenapine maleate] | 1.02 | 0.826 | 0.969 | 0.999 |
| CCCNCC(O)COc1ccccc1C(=O)CCc1ccccc1 (stereo not given) [Propafenone hydrochloride] | 1.27 | 0.831 | 1.55 | 0.894 |
| CC(C)c1c(C(=O)Nc2ccccc2)c(-c2ccccc2)c(-c2ccc(F)cc2)n1CC[C@@H](O)C[C@@H](O)CC(=O)O [Atorvastatin] | 0.713 | 1.04 | 0.476 | 0.884 |
| COc1ccc(CN(CCN(C)C)c2ccccn2)cc1 [Pyrilamine maleate] | 1.02 | 0.831 | 0.868 | 0.922 |
| O=C(Nc1ccccc1)OCC(CN1CCCCC1)OC(=O)Nc1ccccc1 (stereo not given) [Diperodon hydrochloride] | 1.21 | 0.665 | 0.926 | 0.916 |
| COC(=O)[C@@H]1[C@H]2C[C@H]3c4[nH]c5ccccc5c4CCN3C[C@@H]2CC[C@@H]1O [Yohimbine hydrochloride] | 1.35 | 0.956 | 0.856 | 0.944 |
| CSc1nc2cc(Cl)c(Oc3cccc(Cl)c3Cl)cc2[nH]1 [Triclabendazole] | 0.809 | 1.06 | 0.755 | 0.887 |
| CCN(CC)C(=O)c1ccc(O)c(OC)c1 [Ethamivan] | 1.06 | 0.922 | 1.06 | 0.987 |
| CCCCN(CCCC)CCCOC(=O)c1ccc(N)cc1 [Butacaine] | 1.11 | 0.75 | 0.986 | 1.07 |
| CO[C@H]1/C=C/O[C@@]2(C)Oc3c(C)c(O)c4c(O)c(c(/C=N/N5CCN(C6CCCC6)CC5)c(O)c4c3C2=O)NC(=O)/C(C)=C\C=C\[C@H](C)[C@H](O)[C@@H](C)[C@@H](O)[C@@H](C)[C@H](OC(C)=O)[C@@H]1C [Rifapentine] | 1.22 | 0.935 | 0.715 | 0.801 |
| CCC1NC(=O)c2cc(S(N)(=O)=O)c(Cl)cc2N1 (stereo not given) [Quinethazone] | 0.913 | 0.957 | 1.02 | 0.919 |
| CNCCCC12CCC(c3ccccc31)c1ccccc12 [Maprotiline hydrochloride] | 1.03 | 1.13 | 0.598 | 0.457 |
| CCc1cccc2c3c([nH]c12)C(CC)(CC(=O)O)OCC3 (stereo not given) [Etodolac] | 1.27 | 1.28 | 1.31 | 1.1 |
| CN1Cc2c(N)cccc2C(c2ccccc2)C1 (stereo not given) [Nomifensine maleate] | 1.01 | 0.752 | 0.766 | 0.782 |
| Cc1nnc(NS(=O)(=O)c2ccc(N)cc2)s1 [Sulfamethizole] | 0.903 | 0.869 | 1.11 | 0.979 |
| CCOc1ccccc1OCC1CNCCO1 (stereo not given) [Viloxazine hydrochloride] | 0.965 | 0.968 | 1.22 | 1.06 |
